{
  "source": "patent US20120196804A1",
  "about": "(INDIANA UNIVERSITY RESEARCH AND TECHNOLOGY, published 2012)",
  "binders": {"B1": {"name": "Oxyntomodulin C24 PEG 20K (peptide)", "peptide": "not shown", "modifications": "PEG 20K on Cys 24"}},
  "target": "glucagon receptor",
  "experiment": "cell-based or functional assay",
  "data": [
    {"binder": "B1", "values": [
      {"measurement": "cAMP Induction, EC50 (luciferase reporter, HEK293)", "value": 0.97, "unit": "nM"}
    ]}
  ]
}
